# Screen size: about 340,000 compounds; about 530 (0.16%) were called active. This list was built around the results that the source calls inconclusive (neither active nor inactive); the mix of calls is not that of the screen. No stated cut-off is given here; in the data, active means activity change below about -80%; inconclusive means between about -30% and that limit; inactive means weaker than that.
# Experiment: Small Molecules that selectively kill Giardia lamblia: qHTS;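 further: parasites exposed to compound for two days anaerobically before the ATP read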
# Settings: Giardia lamblia trophozoite viability; at 7.66 µM; stronger effect = lower value
# Outline: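 Trophozoites 100 cells/well + cpd; 48 hrs, 37 deg C, anaerobic. ATPLite 1-Step added, 15-30 min RT, luminescence read (ATP-based viability).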
# On the % scale 0 is the no-effect control and ±100 the full control effect.
row,Compound,activity change
1,COc1ccc(S(=O)(=O)N2CCC(C(=O)N[C@@H](C)C(=O)NC3CCCC3)CC2)cc1,inconclusive: -40.6% [inhibitor]
2,CCN(CC(=O)NCc1cccs1)C(=O)/C=C/c1ccc(C)cc1,inconclusive: -35.8% [inhibitor]
3,CCOC(=O)C1CCN(c2ccc([N+](=O)[O-])c(C(C)=O)c2)CC1,inconclusive: -61.9% [inhibitor]
4,CC(=O)OCC(NC(=O)C1CCCN1C(=O)OC(C)(C)C)C1OC(n2ccc(=O)[nH]c2=O)C(OC(C)=O)C1OC(C)=O (stereo unspecified),inactive: 16.4%
5,CCN1c2ccccc2NC2C1C(C(C)=O)C(=O)N2c1ccc(Cl)cc1 (stereo unspecified),inactive: 5.63%
6,Cc1ccc(S(=O)(=O)NCc2ccccc2)cc1C(=O)N1CCN(c2ccccc2)CC1,inconclusive: -38.1% [inhibitor]
7,O=[N+]([O-])c1cnc2ccccn12,active: -81.7%
8,CCOc1ccc(CCNC(=O)C2CCCN(S(=O)(=O)N3CCOCC3)C2)cc1OCC (stereo unspecified),inconclusive: -35.5% [inhibitor]
9,Cc1nnc2ccc(-c3cccc(NS(=O)(=O)c4ccccc4Cl)c3)nn12,inactive: -4.77%
10,O=c1c2c3c(sc2nc2n1N=C(c1cccs1)CS2)CCCC3,inconclusive: -69.8% [inhibitor]
11,CN(C)c1ccc(C=Nc2ccccc2C(N)=O)cc1,inconclusive: -65.5% [inhibitor]
12,O=C(Nc1ccccc1Cl)c1ccc2c(=O)n3c(nc2c1)CCC3,inactive: -17.5%
13,CCC(C)c1ccc(NC(=S)Nc2ccc(OC)cc2C)cc1 (stereo unspecified),inactive: -3.21%
14,Cc1ccc(C(=O)N(C)CC(=O)Nc2ccc(Cl)c(C(F)(F)F)c2)cc1S(=O)(=O)N1CCCCC1,inactive: 9.41%
15,O=C(NC1(C(F)(F)F)C(=O)Nc2c1c(=O)[nH]c(=O)n2Cc1ccccc1)c1ccc(Cl)cc1 (stereo unspecified),inconclusive: -35.4% [inhibitor]
16,Cc1cccc(C)c1NC(=O)NCCCN1CCN(c2ccccc2)CC1,inactive: 5.31%
17,COc1ccc(CCNc2ccc(C(CC(N)=O)NC(=O)c3cc(C)cc(C)c3)cc2[N+](=O)[O-])cc1 (stereo unspecified),inconclusive: -30.7% [inhibitor]
18,C#CCn1c(CCNC(=O)c2ccco2)nc2ccccc21,inconclusive: -37.5% [inhibitor]
19,O=C(N/N=C/c1cccc([N+](=O)[O-])c1)c1ccc2c(c1)OCCO2,inconclusive: -37.7% [inhibitor]
20,Cc1cc([N+](=O)[O-])ccc1-c1ccc(C2Nc3ccccc3C(=O)N2O)o1 (stereo unspecified),inactive: -1.56%
21,Cc1ccc2c(c1)C(N1CCCC1=O)CC(c1ccco1)N2 (stereo unspecified),inconclusive: -42.3% [inhibitor]
